# Article PMC10657792, “Downstream Allosteric Modulation of NMDA Receptors by 3-Benzazepine Derivatives” (Molecular Neurobiology, 2023)
# The source gives many values for each of these; only a part stands here.
# Experiments:
# GluN1b wt/ GluN2B wt = GluN1b wt/ GluN2B wt (Rattus norvegicus, UniProt P35439+Q00960); assay: TEVC recording in X. laevis oocytes in the presence of agonists and 200 µM spermine; format: cell-based; details: agonists + 200 µM spermine; fitted curve
# Procedure: (§1) The NMDAR was expressed in stage V and VI oocytes originated from X. laevis. Oocytes were provided by Ecocyte Bioscience (Dortmund, Germany), and equimolar amounts of wild-type and mutated GluN1 and GluN2B cRNA were injected (0.8 ng each). The oocytes were incubated in Barth’s solution, containing (mmol l^−1): 88 NaCl, 1 KCl, 0.4 CaCl2, 0.33 Ca(NO3)2, 0.6 MgSO4, 5 TRIS–HCl, 2.4 NaHCO3, supplemented with 80 mg l^−1 theophylline, 63 mg l^−1 benzylpenicillin, 40 mg l^−1 streptomycin, and 100 mg l^−1 gentamycin and maintained at 18 °C until usage. After injection, the oocytes were incubated for 5 days at 18 °C. Subsequently, the activity of the expressed NMDARs in the oocytes was recorded by two-electrode voltage clamp (TEVC).
# (§2) The compounds were retrieved as 10 mM stock solutions in DMSO and were subsequently diluted with agonist solution and adjusted to 0.1% DMSO concentration. Inhibition of each compound was measured via TEVC in X. laevis oocytes at room temperature using a Turbo Tec 10CX amplifier (NPI electronic, Tamm, Germany), NI USB 6221 DA/AD Interface (National Instruments, Austin, USA), and GePulse Software (Dr. Michael Pusch, Genova, Italy). Ba^2+-Ringer, consisting of 10 mM HEPES, 90 mM NaCl, 1 mM KCl, and 1.5 mM BaCl2, adjusted to pH 7.4, was used for TEVC measurements. […] Example traces for all recorded conditions can be found in Supplementary Figs. S2–S9. […]
# GluN1a wt/ GluN2B wt = GluN1a wt/ GluN2B wt (Rattus norvegicus, UniProt P35439+Q00960); assay: as above; format: cell-based; details: agonists + 200 µM spermine; fitted curve
# GluN1a wt/ GluN2B wt, sequence (Q00960 27-1482, other chains not shown): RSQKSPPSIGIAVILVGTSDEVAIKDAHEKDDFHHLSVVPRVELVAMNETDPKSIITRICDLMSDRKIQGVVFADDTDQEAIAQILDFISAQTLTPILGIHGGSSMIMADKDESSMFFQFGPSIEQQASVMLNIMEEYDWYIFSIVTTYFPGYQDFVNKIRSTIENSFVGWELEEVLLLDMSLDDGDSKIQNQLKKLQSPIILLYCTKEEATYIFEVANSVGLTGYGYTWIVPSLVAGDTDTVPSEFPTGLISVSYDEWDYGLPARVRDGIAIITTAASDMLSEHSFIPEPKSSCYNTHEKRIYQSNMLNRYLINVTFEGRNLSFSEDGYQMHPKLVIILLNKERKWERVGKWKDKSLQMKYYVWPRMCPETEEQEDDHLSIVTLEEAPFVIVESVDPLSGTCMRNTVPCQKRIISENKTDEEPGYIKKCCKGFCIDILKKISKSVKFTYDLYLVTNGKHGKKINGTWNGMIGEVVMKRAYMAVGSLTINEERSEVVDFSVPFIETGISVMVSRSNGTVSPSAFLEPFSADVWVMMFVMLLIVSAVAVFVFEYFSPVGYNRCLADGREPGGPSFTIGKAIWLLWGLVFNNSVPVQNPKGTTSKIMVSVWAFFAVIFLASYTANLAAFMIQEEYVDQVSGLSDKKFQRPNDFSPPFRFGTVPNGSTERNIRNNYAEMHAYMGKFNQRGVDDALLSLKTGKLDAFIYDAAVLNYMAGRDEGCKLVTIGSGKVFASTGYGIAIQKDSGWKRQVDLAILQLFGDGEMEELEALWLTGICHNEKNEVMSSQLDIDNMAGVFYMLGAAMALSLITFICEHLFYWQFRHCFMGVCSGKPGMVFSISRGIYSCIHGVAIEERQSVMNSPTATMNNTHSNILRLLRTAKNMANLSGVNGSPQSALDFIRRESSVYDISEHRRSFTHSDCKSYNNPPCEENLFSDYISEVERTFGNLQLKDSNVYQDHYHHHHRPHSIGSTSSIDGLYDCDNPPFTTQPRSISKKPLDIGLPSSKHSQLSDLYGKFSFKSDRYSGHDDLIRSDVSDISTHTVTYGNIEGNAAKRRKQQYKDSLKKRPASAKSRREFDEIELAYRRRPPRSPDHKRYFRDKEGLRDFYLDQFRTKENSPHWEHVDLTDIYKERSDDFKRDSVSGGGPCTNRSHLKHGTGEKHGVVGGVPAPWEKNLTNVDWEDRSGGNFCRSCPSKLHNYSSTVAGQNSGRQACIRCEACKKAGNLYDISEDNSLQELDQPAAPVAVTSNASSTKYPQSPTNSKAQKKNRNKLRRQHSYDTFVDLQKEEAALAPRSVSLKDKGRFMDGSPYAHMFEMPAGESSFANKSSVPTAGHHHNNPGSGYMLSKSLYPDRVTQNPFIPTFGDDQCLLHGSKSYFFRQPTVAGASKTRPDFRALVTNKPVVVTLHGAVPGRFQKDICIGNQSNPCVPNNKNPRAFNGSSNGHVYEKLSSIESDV
# Procedure: as §1, §2
# GluN1b wt/ GluN2B wt, sequence (Q00960 27-1482, other chains not shown): as above
smiles,measurement,setting,value
Oc1ccc2c(c1)CCN(CCCCc1ccccc1F)C[C@@H]2O [(R)-OF-NB1],A2 (level of maximal inhibition),GluN1b wt/ GluN2B wt,83.8%
same,A2 (level of maximal inhibition),GluN1a wt/ GluN2B wt,89.1%
